The campaign covered roughly 350,000 compounds. About 260 (0.074%) were called active. The inconclusive results got no clear call from the source; some entries with a clear call stand among them for comparison. The call rests on the fitted dose curve; in most records, active means well fitted inhibition curve with a large enough effect; inconclusive means small, poorly fitted or top-dose-only effect; inactive means no such curve, though single readings can be large or run the other way. Potencies beside an inconclusive call are fits to weak or partial responses and may not hold up.
The compounds below were run against Ferritin light chain (Equus caballus) (UniProt P02791) (assay: qHTS Assay for Identification of Novel General Anesthetics). Settings: apoferritin/1-aminoanthracene competitive binding, fluorescence; activity change, negative = displacement: at 77.5 µM (top of the series).
Sequence of UniProt P02791 (P02791 whole entry, looked up): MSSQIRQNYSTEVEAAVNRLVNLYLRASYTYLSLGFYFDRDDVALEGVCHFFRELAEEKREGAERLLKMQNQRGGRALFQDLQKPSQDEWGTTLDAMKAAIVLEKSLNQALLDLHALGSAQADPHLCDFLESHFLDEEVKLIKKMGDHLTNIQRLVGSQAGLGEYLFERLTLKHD
How it was run: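 Concentration-response curves derived by four-parameter Hill fitting of normalized fluorescence, where compounds displaced 1-AMA from 10 uM horse apoferritin following a brief 10 min room-temperature incubation; propofol titration acted as positive control.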
Further: nearly all actives have a fitted effect of over 20% in size.
On the % scale 0 is the no-effect control and ±100 the full control effect; potency means the concentration at half of the fitted maximal effect; tags describe the fitted curve by direction and shape.

Row | Structure (SMILES) | activity change, negative = displacement | Potency
1 | O=C(CSc1nc2ccccc2n1S(=O)(=O)c1cccc([N+](=O)[O-])c1)NCCc1ccccc1 | inactive: -8.08% | –
2 | Cc1[nH]c2ccccc2c1C(C[N+](=O)[O-])c1cccs1 (stereo not given) | – | inconclusive: 35.5 µM [inhibitor, partial curve]
3 | Cc1ccc(C(=O)CSC2=NC(N)=C(C#N)C3(CCCCC3)C2C(N)=O)cc1 (stereo not given) | – | inconclusive: 31.6 µM [inhibitor, partial curve]
4 | Cc1nc2nc(NC(=O)c3ccc(F)cc3)[nH]n2c(=O)c1Cc1ccccc1 | inactive: -10.8% | –
5 | O=C1C=C(NCc2ccc(Cl)cc2)CC(c2ccco2)C1 (stereo not given) | inactive: -10.7% | –
6 | Cn1c(=O)oc2cc(S(=O)(=O)CCC(=O)NCCc3ccccc3)ccc21 | – | inactive
7 | CC(=O)c1cc(-c2ccc(F)cc2)n(CC(=O)NC(C)c2ccccc2)c1C (stereo not given) | inactive: 6.96% | –
8 | COc1ccc(C2=NS(=O)(=O)N(C)C(C(=O)Nc3ccc(F)cc3F)=C2)cc1 | – | inconclusive: 15.8 µM [inhibitor, partial curve]
9 | O=C(NCc1ccccc1F)C1CCN(Cc2cc3ccccc3n2Cc2cccc(Cl)c2)CC1 | inactive: 45.1% | –
10 | O=C(NC1C2CC3CC(C2)CC1C3)C1CC1 (stereo not given) | – | inconclusive: 3.55 µM [inhibitor, full curve]
11 | Cc1ccc(N2CC(C(=O)Nc3nccs3)CC2=O)cc1Cl (stereo not given) | – | inconclusive: 7.08 µM [inhibitor, full curve, poor fit]
12 | Cc1ccc2c(c1)C=CC(C)N2C(=O)c1ccccc1 (stereo not given) | – | inconclusive: 22.4 µM [inhibitor, partial curve]
13 | N/C(=N\OC(=O)COc1ccc(Cl)cc1Cl)c1ccncc1 | – | inconclusive: 35.5 µM [inhibitor, partial curve]
14 | S=C(Nc1ccccc1)Nc1cccc(Cl)c1Cl | – | inconclusive: 39.8 µM [inhibitor, single point]
15 | COc1ccc(S(=O)(=O)n2nc(OC(=O)c3cccs3)cc2N)cc1 | – | inconclusive: 50.1 µM [inhibitor, partial curve]
16 | CCCCc1ccc(NS(=O)(=O)N(C)C)cc1 | – | inconclusive: 14.1 µM [inhibitor, partial curve]
17 | CC1CCCCC1n1c(=S)[nH]c2ccccc2c1=O (stereo not given) | – | inconclusive: 15.8 µM [inhibitor, partial curve]
18 | COc1cc(-c2cc(-c3nnco3)c3ccccc3n2)cc(OC)c1OC | inactive: 0.642% | –
19 | CC(NC(=O)C1CCN(C(=O)N2CCOc3ccc(Cl)cc32)CC1)c1ccccc1 (stereo not given) | – | inconclusive: 22.4 µM [inhibitor, partial curve]
20 | O=C(CCSCc1ccc(Cl)cc1)N1CCN(c2ccccc2F)CC1 | inactive: 249% | –
21 | O=C(COc1ccc(-c2ccccc2)cc1)N/N=C/c1ccccc1Br | – | inconclusive: 2.82 µM [inhibitor, partial curve]
22 | CC1(C)NC(=O)N(CC(=O)OCC(=O)Nc2sccc2C#N)C1=O | – | inconclusive: 31.6 µM [inhibitor, partial curve]
23 | CC(C)(C)C1CCc2c(sc(N)c2C(N)=O)C1 (stereo not given) | – | inconclusive: 20 µM [inhibitor, partial curve]

Row | Structure (SMILES) | activity change, negative = displacement | Potency
24 | CCN(CC)S(=O)(=O)c1cccc(NC(=O)COC(=O)c2cccs2)c1 | – | inconclusive: 15.8 µM [inhibitor, partial curve]
25 | CCCC(C(=O)O)N1C(=O)/C(=C2\C(=O)N(C)c3ccccc32)SC1=S (stereo not given) | – | inconclusive: 35.5 µM [inhibitor, partial curve]
26 | CC1CCN(C(=O)CSc2nc3c([nH]c4ccccc43)c(=O)n2-c2ccccc2)CC1 | – | inconclusive: 44.7 µM [inhibitor, single point]
27 | Cc1ccc([N+](=O)[O-])cc1N=C(c1cccc(Br)c1)N1CCOCC1 | – | inconclusive: 28.2 µM [inhibitor, partial curve]
28 | c1ccc(-c2nc(NC3CC3)nc(-n3ccnc3)n2)cc1 | inactive: -9.12% | –
29 | CCc1ccc(NC(=O)Cn2c(=O)n(Cc3nc(C)no3)c(=O)c3cc4c(cc32)OCO4)cc1 | – | inconclusive: 11.2 µM [inhibitor, partial curve]
30 | Cc1ccc(C)c(OCC(=O)N2CCc3ccccc3C2)c1 | – | inconclusive: 20 µM [inhibitor, partial curve]
31 | CNC(=S)N/N=C(\C)c1ccc(N2CCOCC2)cc1 | inactive: -10.9% | –
32 | CCCc1cc(=O)n2[nH]c(-c3ccccc3)cc2n1 | inactive: -8.56% | –
33 | O=C(CSc1nnc2n(C3CCCC3)c(=O)c3ccccc3n12)N1CCCCCC1 | – | inconclusive: 35.5 µM [inhibitor, partial curve]
34 | O=C1c2ccccc2OCOc2ccccc21 | – | inconclusive: 39.8 µM [inhibitor, single point]
35 | CCCCCCC(=O)NCC(=O)OCC(=O)c1ccccc1 | – | inconclusive: 14.1 µM [inhibitor, partial curve]
36 | NC(=O)c1ccc(OCC(F)(F)C(F)(F)C(F)(F)C(F)(F)C(F)(F)C(F)F)cc1 | – | inconclusive: 6.31 µM [inhibitor, full curve]
37 | COCCC(=O)N1CCC(Oc2ccc(C(=O)NCCCC3CCCC3)cc2)CC1 | – | inconclusive: 39.8 µM [inhibitor, partial curve]
38 | Cc1ccc(C)c(N2CCN(C(=O)CCC(=O)Nc3nnc(C(F)(F)F)s3)CC2)c1 | – | inconclusive: 31.6 µM [inhibitor, partial curve]
39 | COCCSc1ccccc1C(=O)Nc1ccccc1C(C)C | inactive: -11.7% | –
40 | O=C(NCc1ccccn1)c1ccc(N2CCCC2=O)cc1 | inactive: -2.99% | –
41 | CCCCCCCCc1nnc(N)s1 | – | inconclusive: 14.1 µM [inhibitor, partial curve]
42 | S=C(NCc1ccco1)Nc1ccccn1 | – | inconclusive: 35.5 µM [inhibitor, single point]
43 | CC1(C)C(c2cccs2)=NC(c2ccccc2)N1O (stereo not given) | – | inconclusive: 20 µM [inhibitor, partial curve]
44 | CCc1nnc(NC(=O)c2cc(-c3ccccc3)nn2-c2ccccc2)s1 | – | inconclusive: 10 µM [inhibitor, full curve, poor fit]
45 | CSc1nc(-c2ccccc2)nc(N2CCCC2)c1C(C)=O | – | inconclusive: 28.2 µM [inhibitor, partial curve]

From PubChem BioAssay AID485281 (National Center for Advancing Translational Sciences (NCATS), 2010)
